What follows are compounds tested against hepatitis C virus RNA dependent polymerase (NS5B) (Hepacivirus hominis (Hepatitis C virus), UniProt P26663) (assay: Inhibition of NS5B RNA dependent RNA polymerase activity (SPA, UMP-[5,6 3H] incorporation)). Details: IC50 μM, Table 2.
With COc1ccc(C(NC(=O)c2ccc3c(c2)nc(-c2ccc(C=CC(=O)O)cc2)n3C2CCCCC2)C(=O)O)cc1OC (stereo not shown) [Entry 2083] the IC50 was 10 to 25 µM. COc1ccc(C(NC(=O)c2ccc3c(c2)nc(-c2ccc4c(c2)OCCO4)n3C2CCCCC2)C(=O)O)cc1OC (stereo not shown) [Entry 2036] gave an IC50 of 10 to 25 µM. Compound O=C(N[C@@H](Cc1c[nH]c2ccc(O)cc12)C(=O)O)c1ccc2c(c1)nc(/C=C/c1ccc([N+](=O)[O-])cc1)n2C1CCCCC1 [Entry 2097] has an IC50 of 1 to 5 µM. For O=C(N[C@@H](Cc1c[nH]c2ccc(O)cc12)C(=O)O)c1ccc2c(c1)nc(-c1ccc(C(F)(F)F)cc1)n2C1CCCCC1 [Entry 2138], the IC50 was 1 to 5 µM. O=C(O)CC[C@H](NC(=O)c1ccc2c(c1)nc(-c1ccccn1)n2C1CCCCC1)C(=O)O [Entry 2054] was tested, and the IC50 was 5 to 10 µM. For COc1ccc(C(NC(=O)c2ccc3c(c2)nc(C=C(C)C)n3C2CCCCC2)C(=O)O)cc1OC (stereo not shown) [Entry 2037], the IC50 was 10 to 25 µM. COc1ccc(CNC(=O)c2ccc3c(c2)nc(-c2ccccn2)n3C2CCCCC2)cc1OC [Entry 2075] showed an IC50 of 1 to 5 µM. With Cc1cc(-c2nc3cc(C(=O)N[C@@H](Cc4c[nH]c5ccc(O)cc45)C(=O)O)ccc3n2C2CCCCC2)no1 [Entry 2127] the IC50 was under 1 µM. N#Cc1ccccc1-c1nc2cc(C(=O)N[C@@H](Cc3c[nH]c4ccc(O)cc34)C(=O)O)ccc2n1C1CCCCC1 [Entry 2091] gave an IC50 of 1 to 5 µM. COc1ccc(C(NC(=O)c2ccc3c(c2)nc(-c2ccc(O)cc2)n3C2CCCCC2)C(=O)O)cc1OC (stereo not shown) [Entry 2033] showed an IC50 of 10 to 25 µM. For COC(=O)C(NC(=O)c1ccc2c(c1)nc(-c1ccccn1)n2C1CCCCC1)c1ccc(OC)c(OC)c1 (stereo not shown) [Entry 2047], the IC50 was 5 to 10 µM. For O=C(N[C@@H](Cc1c[nH]c2ccc(O)cc12)C(=O)O)c1ccc2c(c1)nc(-c1ccc(O)nc1)n2C1CCCCC1 [Entry 2140], the IC50 was under 1 µM. Compound COc1cc(CNC(=O)c2ccc3c(c2)nc(-c2ccccn2)n3C2CCCCC2)cc(OC)c1OC [Entry 2008] has an IC50 of 10 to 25 µM.

Same assay, conditions: IC50 μM, Table 5
For Cc1c(C(=O)O)ccc2c1nc(-c1ccoc1)n2C1CCCCC1 [Entry 5004, 1-Cyclohexyl-2-furan-3-yl-4-methyl-1H-benzimidazole-5-carboxylic Acid], the IC50 was 1 to 5 µM. O=C(O)COc1ccc2c(c1)c(C[C@H](NC(=O)c1ccc3c(n1)nc(-c1ccoc1)n3C1CCCCC1)C(=O)O)cn2CC(=O)O [Entry 5003, (S)-3-(5-Carboxymethoxy-1-carboxymethyl-1H-indol-3-yl)-2-{[1-(1-cyclohexyl-2-furan-3-yl-1H-imidazo[4,5-b]pyridin-5-yl)-methanoyl]-amino}-propionic Acid] gave an IC50 of under 1 µM.

Same assay, conditions: IC50 μM, Table 6
With O=C(O)[C@@H]1C[C@H](O)CN1C(=O)c1ccc2c(c1)nc(-c1ccoc1)n2C1CCCCC1 [Entry 6002] the IC50 was 10 to 25 µM.

Same assay, conditions: IC50 μM, Table 7
For Cc1ccc(-c2nc3cc(C(=O)O)ccc3n2C2CCCCC2)s1 [Entry 7010], the IC50 was 10 to 25 µM. Compound N#Cc1ccc(-c2nc3cc(C(=O)O)ccc3n2C2CCCCC2)cc1 [Entry 7002] has an IC50 of 10 to 25 µM.

Same assay, conditions: IC50 μM, Table 8
O=C(NC(Cc1c[nH]c2ccc(O)cc12)C(=O)O)c1ccc2c(c1)nc(C1CCOC1)n2C1CCCC1O (stereo not shown) [Entry 8002] showed an IC50 of 5 to 10 µM.

Same assay, conditions: IC50 μM, Table 22
For CC1CCCCC1n1c(-c2ccoc2)nc2cc(C(=O)NC(Cc3c[nH]c4ccc(O)cc34)C(=O)O)ccc21 (stereo not shown) [Entry 22017], the IC50 was under 1 µM. In the case of C[C@@H]1CCCC[C@H]1n1c(-c2ccoc2)nc2cc(C(=O)N[C@@H](Cc3c[nH]c4ccc(O)cc34)C(=O)O)ccc21 [Entry 22021], the IC50 is reported as under 1 µM. Work on O=C(N[C@@H](Cc1c[nH]c2ccc(O)cc12)C(=O)O)c1ccc2c(c1)nc(-c1ccoc1)n2C1CCCC1 [Entry 22002] yielded an IC50 of under 1 µM.

Same assay, conditions: IC50 μM, first compound table (printed title TABLE 10; Table 1)
O=C(O)/C=C/c1ccc(CN2CCC(NC(=O)c3ccc4c(c3)nc(-c3ccoc3)n4C3CCCCC3)CC2)cc1 [Entry 1281] showed an IC50 of 10 to 25 µM. With O=C(N[C@@H](Cc1ccc(O)cc1)C(=O)Nc1cccnc1)c1ccc2c(c1)nc(-c1ccoc1)n2C1CCCCC1 [Entry 1111] the IC50 was 1 to 5 µM. For CC(C)(C)Oc1ccc(C[C@H](NC(=O)c2ccc3c(c2)nc(-c2ccoc2)n3C2CCCCC2)C(=O)O)cc1 [Entry 1030], the IC50 was 5 to 10 µM. Cn1cc(C[C@H](NC(=O)c2ccc3c(c2)nc(-c2ccoc2)n3C2CCCCC2)C(N)=O)c2cc(OC(C)(C)C(=O)O)ccc21 [Entry 1176, 2-[3-((S)-2-Carbamayl-2-{[1-(1-cyclohexyl-2-furan-3-yl-1H-benzimidazol-5-yl)-methanoyl-]amino}-ethyl)-1-methyl-1H-indol-5-yloxy]-2-methyl-propionic Acid] gave an IC50 of 1 to 5 µM. Work on O=C(NC1CCNCC1)c1ccc2c(c1)nc(-c1ccoc1)n2C1CCCCC1 [Entry 1185] yielded an IC50 of 5 to 10 µM. With O=C(O)CCC(=O)N1CCC(NC(=O)c2ccc3c(c2)nc(-c2ccoc2)n3C2CCCCC2)C1 (stereo not shown) [Entry 1220] the IC50 was 10 to 25 µM. O=C(O)c1ccc(CN2CCC(NC(=O)c3ccc4c(c3)nc(-c3ccoc3)n4C3CCCCC3)C2)cc1 (stereo not shown) [Entry 1272] showed an IC50 of 10 to 25 µM. Compound CN(C)c1nc([C@H](Cc2ccc(OCC(=O)O)cc2)NC(=O)c2ccc3c(c2)nc(-c2ccoc2)n3C2CCCCC2)cs1 [Entry 1141, {4-[(S)-2-{[1-(1-Cyclohexyl-2-furan-3-yl-1H-benzimidazol-5-yl)-methanoyl]-amino}-2-(2-dimethylamino-thiazol-4-yl)-ethyl]-phenoxy}-acetic Acid] has an IC50 of 1 to 5 µM. C[C@H](NC(=O)c1ccc2c(c1)nc(-c1ccoc1)n2C1CCCCC1)[C@@H](O)c1ccc(OCC(=O)O)cc1 [Entry 1119] was tested, and the IC50 was 1 to 5 µM. CC(CC(=O)Nc1cccc(C(=O)O)c1)NC(=O)c1ccc2c(c1)nc(-c1ccoc1)n2C1CCCCC1 (stereo not shown) [Entry 1179] showed an IC50 of 1 to 5 µM. CNc1nc([C@H](Cc2ccc(OCC(=O)O)cc2)NC(=O)c2ccc3c(c2)nc(-c2ccoc2)n3C2CCCCC2)cs1 [Entry 1140, {4-[(S)-2-{[1-(1-Cyclohexyl-2-furan-3-yl-1H-benzimidazol-5-yl)-methanoyl]-amino}-2-(2-methylamino-thiazol-4-yl)-ethyl]-phenoxy}-acetic Acid] gave an IC50 of 1 to 5 µM. Compound O=C(O)CNC(=O)N1CCC(CNC(=O)c2ccc3c(c2)nc(-c2ccoc2)n3C2CCCCC2)CC1 [Entry 1192] has an IC50 of 10 to 25 µM. O=C(N[C@@H](Cc1ccc(-n2nnc(C(F)(F)F)c2C(=O)O)cc1)C(=O)O)c1ccc2c(c1)nc(-c1ccoc1)n2C1CCCCC1 [Entry 1083] was tested, and the IC50 was 10 to 25 µM. O=C(O)COc1ccc(CN2CCCC(NC(=O)c3ccc4c(c3)nc(-c3ccoc3)n4C3CCCCC3)C2)cc1 (stereo not shown) [Entry 1285] gave an IC50 of 5 to 10 µM. O=C(O)c1cccc(CN2CCCC(NC(=O)c3ccc4c(c3)nc(-c3ccoc3)n4C3CCCCC3)C2)c1 (stereo not shown) [Entry 1291] showed an IC50 of 1 to 5 µM. Work on O=C(N[C@@H](Cc1ccc(O)cc1)C(=O)NCc1ccccn1)c1ccc2c(c1)nc(-c1ccoc1)n2C1CCCCC1 [Entry 1114] yielded an IC50 of 1 to 5 µM. With C[C@@H](Cc1ccc(O)cc1)NC(=O)c1ccc2c(c1)nc(-c1ccoc1)n2C1CCCCC1 [Entry 1072] the IC50 was 1 to 5 µM. With O=C(O)COc1ccc(CC(NC(=O)c2ccc3c(c2)nc(-c2ccoc2)n3C2CCCCC2)C(F)(F)F)cc1 (racemic) [Entry 1123, [4-(2-{[1-(1-Cyclohexyl-2-furan-3-yl-1H-benzimidazol-5-yl)-methanoyl]-amino}-3,3,3-trifluoro-propyl)-phenoxy]-acetic Acid] the IC50 was 1 to 5 µM.

Same assay, conditions: IC50, Table 11
Work on O=C(N[C@@H](Cc1c[nH]c2ccc(Nc3c(O)c(=O)c3=O)cc12)C(=O)O)c1ccc2c(c1)nc(-c1ccoc1)n2C1CCCCC1 [Entry 11027, (S)-2-{[1-(1-Cyclohexyl-2-furan-3-yl-1H-benzimidazol-5-yl)-methanoyl]-amino}-3-[5-(2-hydroxy-3,4-dioxo-cyclobut-1-enylamino)-1H-indol-3-yl]-propionic Acid] yielded an IC50 of under 1 µM. Cn1cc(C[C@H](NC(=O)c2ccc3c(c2)nc(-c2ccoc2)n3C2CCCCC2)C(=O)O)c2cc(O)ccc21 [Entry 11021, (S)-2-{[1-(1-Cyclohexyl-2-furan-3-yl-1H-benzoimidazol-5-yl)-methanoyl]-amino}-3(5-hydroxy-1-methyl-1H-indol-3-yl)-propionic Acid] was tested, and the IC50 was under 1 µM. With COC(=O)[C@H](Cc1cn(C)c2ccc(OC(C)(C)C(=O)O)cc12)NC(=O)c1ccc2c(c1)nc(-c1ccoc1)n2C1CCCCC1 [Entry 11029, (S)-3-[5-(1-Carboxy-1-methyl-ethoxy)-1-methyl-1H-indol-3-yl]-2-{[1-(1-cyclohexyl-2-furan-3-yl-1H-benzimidazol-5-yl)-methanoyl]-amino}-propionic Acid Methyl Ester] the IC50 was under 1 µM.

Same assay, conditions: IC50, Table 12
Compound O=C(O)COc1ccc2[nH]cc(C[C@H](NC(=O)c3ccc4c(c3)nc(-c3ccc(C(F)(F)F)cc3)n4C3CCCCC3)C(=O)O)c2c1 [Entry 12024] has an IC50 of under 1 µM.

Same assay, conditions: IC50, Table 13
NC(=O)Nc1ccc2[nH]cc(C[C@H](NC(=O)c3ccc4c(c3)nc(-c3ccoc3)n4C3CCCCC3)C(N)=O)c2c1 [Entry 13013, 1-Cyclohexyl-2-furan-3-yl-1H-benzimidazole-5-carboxylic Acid [(S)-1-Carbamoyl-2-(5-ureido-1H-indol-3-yl)-ethyl]-amide] gave an IC50 of under 1 µM.

Same assay, conditions: IC50, Table 16
In the case of O=C1NC(=S)SC1=Cc1ccc(C[C@H](NC(=O)c2ccc3c(c2)nc(-c2ccoc2)n3C2CCCCC2)C(=O)O)cc1 [Entry 16024, (S)-2-{[1-(1-Cyclohexyl-2-furan-3-yl-1H-benzoimidazol-5-yl)-methanoyl]-amino}-3-[4-(4-oxo-2-thioxo-thiazolidin-5-ylidenemethyl)-phenyl]-propionic Acid], the IC50 is reported as under 1 µM. O=C(O)CCCOc1ccc(C[C@H](NC(=O)c2ccc3c(c2)nc(-c2ccoc2)n3C2CCCCC2)C(=O)O)cc1 [Entry 16043] showed an IC50 of under 1 µM. For O=C(NC(Cc1ccc(C2CC2C(=O)O)cc1)C(=O)O)c1ccc2c(c1)nc(-c1ccoc1)n2C1CCCCC1 (stereo not shown) [Entry 16039], the IC50 was under 1 µM. With O=C(O)C(=O)Nc1ccc(C[C@H](NC(=O)c2ccc3c(c2)nc(-c2ccoc2)n3C2CCCCC2)C(=O)O)cc1 [Entry 16009, (S)-3{4-[(1-Carboxymethanoyl)amino]phenyl}-2-{[1-(1-cyclohexyl-2-furan-3-yl-1H-benzoimidazol-5-yl)-methanoyl]-amino}-propionic Acid] the IC50 was under 1 µM.

Reference: US6448281B1 (Boehringer Ingelheim (Canada) Ltd., priority 2000, dated 2002)
